Data from PubChem BioAssay AID1159614 (National Center for Advancing Translational Sciences (NCATS), 2016).
Hit rate of the full screen: of about 45,000 compounds, about 65 (0.1%) were called active. The call rests on the fitted dose curve; in most records, active means well fitted activation curve with a large enough effect; inconclusive means small, poorly fitted or top-dose-only effect; inactive means no such curve, though single readings can be large or run the other way. This is one part of the list.

These compounds were tested against Galactocerebrosidase (Homo sapiens) (UniProt P54803) (assay: A Novel Cell-Based Assay to Identify Small Molecules for B -Galactocerebrosidase). Conditions: 145M-Twi-hGALC-G270D cells (Twitcher mouse brain line with human GALC G270D), HMU-beta-Gal fluorescence, 48 h; series mostly up to 57.5 µM; activation: at the top concentration.
In short: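 Live 145M-Twi cells (Twitcher mouse brain-derived, GALC-null) stably expressing human GALC-G270D, with a wild-type GALC line, were compound-treated. Residual GALC activity was then read as fluorescence from 0.1 mM final HMU-β-gal at pH 5.2; higher signal means activation.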
Further: 0% is about no effect; nearly all actives have a fitted effect of over 65% in size.

Sequence of UniProt P54803 (P54803 whole entry, looked up): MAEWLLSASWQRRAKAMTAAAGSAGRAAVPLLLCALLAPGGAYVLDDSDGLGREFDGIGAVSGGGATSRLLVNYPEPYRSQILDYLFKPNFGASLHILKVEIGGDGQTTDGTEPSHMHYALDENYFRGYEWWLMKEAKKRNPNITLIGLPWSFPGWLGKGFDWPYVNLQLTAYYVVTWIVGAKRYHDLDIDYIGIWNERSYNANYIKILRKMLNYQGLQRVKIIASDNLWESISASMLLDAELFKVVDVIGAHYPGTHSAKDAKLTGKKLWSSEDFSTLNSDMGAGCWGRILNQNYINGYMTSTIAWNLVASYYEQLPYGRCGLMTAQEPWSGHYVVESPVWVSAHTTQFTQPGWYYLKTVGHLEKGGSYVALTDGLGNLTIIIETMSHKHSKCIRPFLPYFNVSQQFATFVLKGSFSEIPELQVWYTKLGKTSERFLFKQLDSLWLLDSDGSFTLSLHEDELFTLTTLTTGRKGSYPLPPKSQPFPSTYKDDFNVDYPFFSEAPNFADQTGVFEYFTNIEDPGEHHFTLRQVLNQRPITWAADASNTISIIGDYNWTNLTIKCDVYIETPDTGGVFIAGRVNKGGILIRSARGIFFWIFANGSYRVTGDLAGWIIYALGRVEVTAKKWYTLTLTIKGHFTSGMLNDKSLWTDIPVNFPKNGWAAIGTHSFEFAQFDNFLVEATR

activation, inactive:
CCOc1ccc(CCNC(=O)c2ccc3c(c2)c(C)c(C)n3C)cc1 -8.4%
CN1C(=O)CC(C)(c2ccccc2)C1=O (configuration not stated) -9.56%
COC(=O)c1ccc(NC(=O)CSc2nc(=O)n(Cc3ccco3)c3c2CCC3)cc1 -3.86%
Cc1ccccc1C(=O)N1CCC(c2nc3ccccc3s2)CC1 -14.2%
COc1cc(NC(=O)c2nnn(Cc3ccc(F)cc3)c2N)cc(OC)c1 -10.8%
Cc1[nH]n2c(=O)cc(-c3ccccc3Cl)nc2c1-c1ccccc1 -0.454%
CCn1c(SCc2ccccc2)nnc1-c1nonc1NC(C)=O -9.51%
CCC(=O)N1CCc2cc(Br)cc(S(=O)(=O)NCCc3ccc(OC)c(OC)c3)c21 -10.3%
O=C(NCCCc1nc2ccccc2n1Cc1ccccc1Cl)C1CCCCC1 3.81%
CC(=O)C1=C(OC(=O)C(C)C)c2ccccc2S(=O)(=O)N1Cc1ccccc1 -8.01%
CCN(C(=O)CSc1nc2ccccc2n1CC(=O)Nc1cccc(C#N)c1)c1ccccc1 -26.8%
Cc1ccc(CNC(=O)CC2Oc3ccccc3NC2=O)cc1 (configuration not stated) -11.8%
Cc1cc(NC(=O)CN2C(=O)C(C)(C)c3ccccc32)ccc1Br -12%
COc1ccc(C(CC(=O)Nc2ccc(F)c(Cl)c2)N2Cc3ccccc3C2=O)cc1OC (configuration not stated) -0.365%
CCOC(=O)C1CCCN(C(=O)Cn2ncc3c([nH]c4ccccc43)c2=O)C1 (configuration not stated) -12.5%
CCN(CC)CCNC(=O)c1ccc(NC(C)=O)cc1 -8.3%
CC(C)c1ccc(NS(=O)(=O)c2ccc3[nH]cc(C(=O)NC4CCCC4)c(=O)c3c2)cc1 -15%
Cc1ccc(N2CC3=C(C2=O)C(c2ccc(Br)cc2)NC(=O)N3C)cc1 (configuration not stated) -2.51%
O=C1Cc2cc(S(=O)(=O)N3CCN(c4ccccc4)CC3)ccc2N1 -1.22%
Cc1ccc(-c2nc(C(=O)NCc3ccc(Cl)cc3)c3n2CCCCC3)cc1 3.82%
Cc1ccccc1Nc1sc(C(=O)c2ccc3c(c2)OCO3)c(N)c1S(=O)(=O)c1ccccc1 -11%
Cc1ccccc1CNC(=O)c1ccc(NC(=O)c2nsc3ccccc23)cc1 -8.49%
O=C(Cn1c(=O)oc2cc(S(=O)(=O)N3CCCCCC3)ccc21)Nc1cccc(C(F)(F)F)c1 -13.9%
CCn1c(=O)cc(SCC(=O)Nc2ccc(C)c(F)c2)c2ccccc21 -8.66%
Cc1cc(C)cc(NS(=O)(=O)c2ccc3[nH]cc(C(=O)NCc4ccco4)c(=O)c3c2)c1 -10.2%
COc1cccc(NC(=O)CCc2nnc3n(CC(C)C)c(=O)c4ccccc4n23)c1 -1.33%
CC(=O)c1ccc(NC(=O)CN2C(=O)CCc3cc(S(=O)(=O)N4CCC(C)CC4)ccc32)cc1 4.33%
O=C(/C=C/c1ccccc1)Nc1nc(-c2cccs2)ns1 -10.7%
N#C/C(=C\c1ccccc1F)c1nc2ccccc2c(=O)[nH]1 -12.7%
CCC(O)c1nc2ccccc2n1CCOc1cc(C)cc(C)c1 (configuration not stated) 2.55%
O=C(Nc1ccccc1F)c1oc2ccccc2c1NC(=O)C12CC3CC(CC(C3)C1)C2 2.6%
COc1ccc(NC(=O)CSc2n[nH]c(-c3ccccc3)n2)cc1Cl -6.04%
O=C(Nc1ccc(Cl)c(C(F)(F)F)c1)c1cc2nc(-c3ccc4c(c3)OCO4)cc(C(F)(F)F)n2n1 -26.6%
CCCn1ccc2c(OCC(=O)Nc3ccc(C(F)(F)F)cc3)cccc2c1=O -8.34%
CC1(CN2CCC(n3c(=O)[nH]c4ccccc43)CC2)OCc2ccccc2-n2cccc21 (configuration not stated) -45.5%
COc1ccc(OC)c(-n2cnc3cc(C(=O)NCCc4ccccc4)ccc32)c1 -16.2%
Cc1ccc(CN(C(=O)c2ccc([N+](=O)[O-])cc2)c2ccccn2)cc1 -9.22%
Cc1cc(Nc2cccc(C(F)(F)F)c2)nc2ccc(NC(=O)c3cncc(Br)c3)cc12 -16.7%
CCOc1ccccc1N(CC)C(=O)c1cc2c(=O)n(CC)c3ccccc3c2s1 -22.4%
CCOC(=O)c1noc2nc(C)n(CC(=O)Nc3ccc(Br)cc3C)c(=O)c12 -12.5%
CC1=C(C(=O)Nc2ccc(C)cc2C)C(c2ccc[nH]2)n2ncnc2N1 (configuration not stated) -22.6%
CSc1nnc2c(n1)OC(c1cccc(O)c1Cl)Nc1ccccc1-2 (configuration not stated) -22.3%
CC(C(=O)NCc1ccc(Cl)cc1)n1ccc2cc(S(=O)(=O)N3CCCC3)ccc21 (configuration not stated) -14.8%
N#Cc1cc2c(=O)n3ccccc3nc2n(-c2nnc(SCc3ccccc3F)s2)c1=O 3.81%
Cc1ccc(OCC(=O)Nc2ccccc2C(=O)OCc2cc(=O)n3c(C)csc3n2)cc1 -6.04%
Cc1ccc(-c2nnc3ccccc3c2C(=O)Nc2cccc(C(F)(F)F)c2)cc1 15.2%
CC(C)OC(=O)c1c(NC(=O)c2cc3nc(-c4ccccc4)cc(C(F)(F)F)n3n2)sc2c1CCCC2 -8.45%
CCc1ccc(CNC(=O)c2cnc3sc(N(CC)CC)nn3c2=O)cc1 -2.63%
O=C(Cn1ncc2c3ccccc3n(Cc3ccc(Cl)cc3)c2c1=O)NC1CCCCCC1 -11.3%
COc1ccc(CCNC(=O)CN2C(=O)COc3ccc(S(=O)(=O)N4CCCCCC4)cc32)cc1OC -15.1%
COCCCNC(=O)Cn1c(=O)n(-c2ccc(Cl)cc2)c(=O)c2c3c(sc21)CCCCC3 -9.17%
CCOC(=O)C1CCCN(S(=O)(=O)c2ccc3c(c2)N(C)C(=O)CC(=O)N3C)C1 (configuration not stated) -11.7%
CCCCC(CC)Cn1c(Oc2ccccc2)nc2c1c(=O)n(C)c(=O)n2C (configuration not stated) 1.97%
COCCCNc1ncnc2c1nnn2C 1.67%
CCn1c(SCC(=O)Nc2ccc(C)c(C)c2)nnc1-c1nonc1NC(C)=O -5.73%
CC(C)c1cnc2c(c1SCC(=O)Nc1cccc([N+](=O)[O-])c1)c(=O)n(C)c(=O)n2C -9.68%
Cc1ccc(Cl)cc1N1CCN(S(=O)(=O)c2ccc3c(c2)CC(=O)N3C)CC1 -19.5%
Cc1ccc(NC(=O)c2ccc(CN3CC(=O)N4CCCCC4C3=O)cc2)cc1C (configuration not stated) -39.2%
CCOc1ccc(-n2c(=O)c3sc4ccccc4c3n(Cc3ccc(F)cc3)c2=O)cc1 -7.85%
CCc1ccccc1NC(=O)C(=O)NCCc1sc(-c2cccc(C)c2)nc1C 11%
Cc1ccc(O)c(NC(=O)c2nc3nc(C)cc(C(F)F)n3n2)c1 -6.01%
COc1cccc(N2CCN(C(=O)c3nc(-c4ccc(Cl)cc4)n4c3CCCCC4)CC2)c1 -15.1%
COCCn1c(SCC(=O)c2c[nH]c3ccccc23)nc2cc(C(=O)NCC(C)C)ccc2c1=O -1.57%
O=c1oc2ccc3ccccc3c2cc1-c1nnc(Nc2cc(C(F)(F)F)ccc2Cl)s1 -6.27%
Cc1[nH]c2c(C)cccc2c1CCNC(=O)c1cc2ccccc2oc1=O -13.3%
Cc1ccc(N(CC(=O)Nc2ccc(OC(F)(F)F)cc2)S(=O)(=O)c2c(C)noc2C)cc1 -9.52%
CCOC(=O)c1cc2c(=O)n3ccccc3nc2n(CC2CCCO2)c1=NC(=O)c1cc(C)cc(C)c1 (configuration not stated) -10.9%
COc1ccc(CC(=O)Nc2sc3c(c2C(=O)Nc2ccc(C)cc2)CCCCC3)cc1 -8.94%
CCc1cccc(C)c1Nc1c(-c2cccc(O)c2)nc2sccn12 -25.4%
Cc1[nH]c2ccccc2c1C1(O)C(=O)N(Cc2ccc(Cl)cc2)c2ccccc21 (configuration not stated) -22.8%
O=S(=O)(c1cccc(Cl)c1)c1nnn2c1nc(NC1CCCC1)c1sccc12 -15.8%
COc1cc(NC(=O)CSc2nc3nc(C)c(Cc4ccccc4)c(C)n3n2)cc(OC)c1OC 22.6%
Cc1nc(N2CCCC2)ncc1C(=O)NCc1ccccc1Cl -9.87%
CCc1nnc2n1N(C(C)=O)C(c1ccc(C(C)(C)C)cc1)=C(C(C)=O)S2 -17.1%
CCc1ccc(CNC(=O)c2cc3c(s2)-c2ccccc2OC3)cc1 3.81%
COC(=O)c1ccc(NC(=O)C2CCN(S(=O)(=O)c3ccc4c(c3)CCCN4C(C)=O)CC2)cc1 -19.2%
CN(CC(=O)Nc1ccc(Br)cc1)S(=O)(=O)c1cccc2nsnc12 -15.2%
COc1ccc(NC(=O)C2CCN(C(=O)c3sc4nc[nH]c(=O)c4c3C)CC2)cc1Cl 1.66%
COc1ccc(NC(=O)c2oc3ccccc3c2NC(=O)c2cc(C)cc(C)c2)c(OC)c1 4.19%
CCOC(=O)C1CCN(c2nc3ccccc3nc2Cl)CC1 -7.53%
COc1ccccc1NC(=O)CSc1nc2c(oc3ccccc32)c(=O)n1-c1ccccc1F -5.22%
Cc1cc2oc(C(=O)N(Cc3ccc(N(C)C)cc3)CC3CCCO3)c(C)c2cc1Cl (configuration not stated) -4.84%
O=C(O)c1ccc(OCCN2CCCCC2)cc1 -7.17%
CN1C(=O)Cc2cc(S(=O)(=O)CCC(=O)N3CCN(c4ccc(Cl)cc4)CC3)ccc21 -19.8%
C=Cc1ccc(Cn2c(C)c(CNCc3ccc(SC)cc3)c(C(=O)O)c2C)cc1 0.306%
CN(Cc1ccccc1)c1ccc(-c2nc(-c3ccccc3)no2)cc1[N+](=O)[O-] -39.7%
Cc1cc(C)c(NC(=O)C(=O)NCC(c2cccnc2)N2CCN(c3ccccc3F)CC2)c(C)c1 (configuration not stated) -16%
CCc1cccc(NC(=O)c2cc3c(s2)-c2ccccc2OC3)c1 11.1%
CC(=O)Nc1cccc(NC(=O)CSc2nccn2C2CCCC2)c1 -16%
O=C(CN1C(=O)c2cccc3cccc1c23)Nc1cccc(F)c1 -14.8%
CCC(Sc1ncc(S(=O)(=O)c2ccc(Cl)cc2)c(=O)[nH]1)C(=O)Nc1ccc(OC)cc1 (configuration not stated) -19.5%
COc1ccc(Cl)cc1NC(=O)CSc1nnc2[nH]c(=O)cc(-c3ccccc3)n12 -12.7%
Cc1ccc2[nH]c(=O)c3cc(C(=O)N(CCCOC(C)C)Cc4ccco4)sc3c2c1 -37.3%
COC(=O)c1ccc2c(=O)n3nc(Nc4cc(OC)ccc4OC)sc3nc2c1 -11.5%
Cc1ccc(OCc2nc(C#N)c(NCCc3ccccc3)o2)cc1 -5%
Cc1ccccc1NC(=O)CSC1=Nc2ccccc2C2=NC(Cc3ccccc3)C(=O)N12 (configuration not stated) -9.79%
O=C(NCc1nc2ccccc2n1Cc1ccccc1Cl)c1ccccc1 -18.5%
